Where “and” joins values, the source holds several entries; their conditions need not be identical. Equal entries are not always repeated. Inconclusive results, whose numbers are uncertain, are shown with a selection of clear calls. Entries that show only a call come without a potency. For some assays here: Where the call is inconclusive, the potency comes from a doubtful curve fit. Calls of active or inactive are those of the source. Unless noted, calls come from the whole dose curve; as a rule, active = well fitted curve in the direction sought with a large enough effect in the repeat runs; inconclusive = weak or mixed curves; inactive = no such curve, though single readings can be large; an effect the other way counts as inactive or inconclusive.
Tests used:
[1] = biological target: Peroxisome proliferator-activated receptor delta (Homo sapiens) (UniProt Q03181); experiment: qHTS assay to identify small molecule antagonists of the peroxisome proliferator-activated receptor delta (PPARd) signaling pathway (AID 743215; active = well fitted inhibition curve with a large enough effect in the signal ratio in the repeat runs, not every such curve was filed as active; inconclusive = weak or mixed curves, or effect the other way; inactive = no such curve, though single readings can be large or run the other way; the % refers to the signal ratio;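 note: cells stimulated with agonist L165041 at 300 nM final during compound exposure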; note: potency is the fitted concentration of half-maximal effect); conditions: HEK293H PPARd-UAS-bla, beta-lactamase FRET ratio, antagonist, 17 h; ratio activity, negative = inhibition: at 62 µM (top of the series) unless noted
Chain of UniProt Q03181 (Q03181 whole entry, looked up): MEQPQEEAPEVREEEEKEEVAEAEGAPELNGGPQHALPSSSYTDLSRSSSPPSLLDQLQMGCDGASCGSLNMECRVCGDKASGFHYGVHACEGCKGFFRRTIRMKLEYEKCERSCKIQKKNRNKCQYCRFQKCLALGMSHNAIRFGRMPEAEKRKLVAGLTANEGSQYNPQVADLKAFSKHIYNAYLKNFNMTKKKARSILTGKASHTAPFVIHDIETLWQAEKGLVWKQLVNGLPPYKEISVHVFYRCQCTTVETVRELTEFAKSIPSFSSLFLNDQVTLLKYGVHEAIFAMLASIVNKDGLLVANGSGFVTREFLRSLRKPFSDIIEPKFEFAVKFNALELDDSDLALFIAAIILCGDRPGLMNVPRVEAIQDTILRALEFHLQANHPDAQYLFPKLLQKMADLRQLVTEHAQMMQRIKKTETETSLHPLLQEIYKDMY
In short: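 Plated HEK293H PPARd-bla cells rested 5 h at 37 C and 5% CO2. Compound, then agonist L165041 at 300 nM final, was added; 17 h at 37 C followed. Substrate loading, 2 h room temperature, fluorescence measured.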

[2] = qHTS assay to identify small molecule agonists of the endoplasmic reticulum stress response signaling pathway (AID 1159516; active = well fitted activation curve with a large enough effect in the signal ratio in the repeat runs, not every such curve was filed as active; inconclusive = weak or mixed curves, or effect the other way; the % refers to the signal ratio; note: potency is the fitted concentration of half-maximal effect); conditions: ESRE-bla HeLa, ER stress beta-lactamase reporter, 5 h; activation: at 61 µM (top of the series) unless noted
In short: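 Using a HeLa line with an ESRE-driven beta-lactamase gene, agonist activity was measured by FRET substrate fluorescence (460 and 530 nm emission) after cells were treated with compounds for 5 hr at 37 C and 5% CO2.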

[3] = qHTS assay to identify small molecule agonists of the farnesoid-X-receptor (FXR) signaling pathway - cell viability counter screen (AID 743218); conditions: FXR-bla HEK293T viability, CellTiter-Glo luminescence, 16 h; viability change, negative = cytotoxic: at 62.6 µM (top of the series) unless noted; note: nearly all actives have a fitted effect of over 45% in size; note: potency is the fitted concentration of half-maximal effect
In short: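 Viability of FXR-bla HEK 293T cells is measured by ATP-based CellTiter-Glo luminescence following 16 h compound treatment at 37 C and a prior 2 h room-temperature beta-lactamase substrate step.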

[4] = biological target: Vitamin D3 receptor (Homo sapiens) (UniProt P11473); experiment: qHTS assay to identify small molecule agonists of the vitamin D receptor (VDR) signaling pathway (AID 743222; calls by dose curve; note: potency is the fitted concentration of half-maximal effect); conditions: HEK293T VDR-UAS-bla, beta-lactamase FRET ratio, 16 h; activation: at 63.5 µM (top of the series) unless noted
Chain of UniProt P11473 (P11473 whole entry, looked up): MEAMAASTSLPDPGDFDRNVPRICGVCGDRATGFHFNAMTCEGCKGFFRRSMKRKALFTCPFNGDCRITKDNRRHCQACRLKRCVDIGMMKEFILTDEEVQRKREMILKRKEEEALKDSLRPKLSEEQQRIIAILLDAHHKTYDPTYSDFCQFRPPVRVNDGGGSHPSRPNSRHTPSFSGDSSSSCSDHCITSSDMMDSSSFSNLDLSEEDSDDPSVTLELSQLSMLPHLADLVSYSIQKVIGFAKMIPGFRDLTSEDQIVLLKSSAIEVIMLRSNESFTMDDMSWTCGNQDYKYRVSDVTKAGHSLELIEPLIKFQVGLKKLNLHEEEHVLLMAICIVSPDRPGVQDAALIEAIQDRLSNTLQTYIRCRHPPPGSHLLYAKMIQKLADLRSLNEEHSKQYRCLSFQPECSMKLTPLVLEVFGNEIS
In short: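 Fluorescence from cleaved LiveBLAzer B/G FRET substrate served as readout. VDR-bla cells had been treated 16 h at 37C with test compounds in DMSO, following a 4 h settling period, and substrate was loaded for 2 h at RT.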

[5] = qHTS assay to identify small molecule antagonists of the vitamin D receptor (VDR) signaling pathway - cell viability counter screen (AID 743225); conditions: VDR-bla HEK293T viability, CellTiter-Glo luminescence, 16 h; viability change, negative = cytotoxic: at 61 µM (top of the series) unless noted; note: nearly all actives have a fitted effect of over 50% in size; note: potency is the fitted concentration of half-maximal effect
In short: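 In this counter screen, VDR-bla HEK 293T cells receive test compound plus 3 nM final calcitriol for 16 h at 37C. Room-temperature steps of 2 h with the beta-lactamase substrate, then 30 min with CellTiter-Glo, precede the luminescence read.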

[6] = biological target: Vitamin D3 receptor (Homo sapiens) (UniProt P11473); experiment: qHTS assay to identify small molecule antagonists of the vitamin D receptor (VDR) signaling pathway (AID 743223; active = well fitted inhibition curve with a large enough effect in the signal ratio in the repeat runs, not every such curve was filed as active; inconclusive = weak or mixed curves, or effect the other way; inactive = no such curve, though single readings can be large or run the other way; the % refers to the signal ratio); conditions: VDR-UAS-bla HEK293T, beta-lactamase FRET ratio, 16 h; activity change, negative = inhibition: at 61 µM (top of the series) unless noted
In short: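 Beta-lactamase activity in VDR-bla cells is measured by FRET substrate fluorescence (2 h, room temperature) after cells spend 16 h at 37C with test compound and 3 nM final 1alpha,25-dihydroxyvitamin D3.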

[7] = qHTS assay to identify small molecule agonists of the vitamin D receptor (VDR) signaling pathway - cell viability counter screen (AID 743224); conditions: VDR-bla HEK293T viability, CellTiter-Glo luminescence, 16 h; activity change, negative = cytotoxicity: at 62.6 µM (top of the series); note: nearly all actives have a fitted effect of over 50% in size
In short: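 Compounds were pin-transferred onto VDR-bla cells plated 4 h earlier; following 16 h incubation at 37C, cell viability was quantified by CellTiter-Glo luminescence after 30 min at room temperature.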

[8] = qHTS assay to identify small molecule antagonists of the farnesoid-X-receptor (FXR) signaling pathway - cell viability counter screen (AID 743221; active = well fitted cell-killing curve with a large enough effect in the repeat runs, not every such curve was filed as active; inconclusive = weak or mixed curves, or effect the other way; inactive = no such curve, though single readings can be large or run the other way; note: nearly all actives have a fitted effect of over 50% in size; note: potency is the fitted concentration of half-maximal effect); conditions: FXR-bla HEK293T viability, CellTiter-Glo luminescence, 16 h; activity change, negative = cytotoxicity: at 62.6 µM (top of the series)
In short: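 Compound effects on cell number were measured as CellTiter-Glo luminescence in HEK 293T cells expressing FXR-UAS-bla, after 16 h at 37 C with 50 uM CDCA (final).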

[9] = biological target: Bile acid receptor (Homo sapiens) (UniProt Q96RI1); experiment: qHTS assay to identify small molecule agonists of the farnesoid-X-receptor (FXR) signaling pathway (AID 743220; active = well fitted activation curve with a large enough effect in the signal ratio in the repeat runs, not every such curve was filed as active; inconclusive = weak or mixed curves, or effect the other way; the % refers to the signal ratio); conditions: HEK293T FXR-UAS-bla, beta-lactamase FRET ratio, 16 h; activation: at 62.6 µM (top of the series) unless noted
Chain of UniProt Q96RI1 (Q96RI1 whole entry, looked up): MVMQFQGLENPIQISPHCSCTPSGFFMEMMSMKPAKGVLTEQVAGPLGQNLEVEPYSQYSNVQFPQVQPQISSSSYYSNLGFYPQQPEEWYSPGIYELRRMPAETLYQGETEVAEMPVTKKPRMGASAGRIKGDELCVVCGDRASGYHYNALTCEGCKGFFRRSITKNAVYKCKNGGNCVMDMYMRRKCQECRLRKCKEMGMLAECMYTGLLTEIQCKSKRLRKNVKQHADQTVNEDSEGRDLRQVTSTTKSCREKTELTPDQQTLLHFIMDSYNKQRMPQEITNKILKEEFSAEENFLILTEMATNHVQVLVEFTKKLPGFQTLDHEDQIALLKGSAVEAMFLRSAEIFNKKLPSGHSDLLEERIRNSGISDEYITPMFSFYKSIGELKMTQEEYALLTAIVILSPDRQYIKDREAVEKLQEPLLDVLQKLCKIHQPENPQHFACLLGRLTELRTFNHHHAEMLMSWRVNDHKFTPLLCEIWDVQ
In short: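 FXR-UAS-bla HEK 293T cells carrying a UAS-driven beta-lactamase reporter were plated for 5 h at 37C/5% CO2, then exposed to DMSO-dissolved Tox21 10K compounds for 16 h at 37C. A LiveBLAzer B/G FRET substrate was loaded for 2 h at room temperature before fluorescence reading.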

[10] = biological target: Bile acid receptor (Homo sapiens) (UniProt Q96RI1); experiment: qHTS assay to identify small molecule antagonists of the farnesoid-X-receptor (FXR) signaling pathway (AID 743217; active = well fitted inhibition curve with a large enough effect in the signal ratio in the repeat runs, not every such curve was filed as active; inconclusive = weak or mixed curves, or effect the other way; inactive = no such curve, though single readings can be large or run the other way; the % refers to the signal ratio); conditions: HEK293T FXR-UAS-bla, beta-lactamase ratio, CDCA-stimulated, 16 h; activity change, negative = inhibition: at 62.6 µM (top of the series) unless noted
In short: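 Screen of the Tox21 10K library in quantitative HTS format using FXR-UAS-bla HEK 293T reporter cells. Agonist chenodeoxycholic acid, 50 uM final, added with compounds; 16 h incubation at 37 °C; beta-lactamase FRET fluorescence measured.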

[11] = qHTS assay to identify small molecule antagonists of the peroxisome proliferator-activated receptor delta (PPARd) signaling pathway - cell viability counter screen (AID 743213); conditions: PPARd-bla HEK293H viability, CellTiter-Glo luminescence, 17 h; viability change, negative = cytotoxic: at 62 µM (top of the series) unless noted; note: nearly all actives have a fitted effect of over 50% in size
In short: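 HEK293H cells with the PPARd UAS-bla reporter, co-treated 17 h at 37 C with compounds and L165041 (300 nM final), were lysed with CellTiter-Glo. Luminescence indicated viable cell content.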
Tags give direction and shape of the fitted curve or compound fluorescence and quenching.

Cc1ncc(COP(=O)(O)O)c(C=O)c1O
ratio activity, negative = inhibition [1]: inconclusive: 21.3% | Potency [2]: inactive

NS(=O)(=O)c1cc(C2(O)NC(=O)c3ccccc32)ccc1Cl (configuration not stated)
Potency [3]: inconclusive: 6.68 µM [rising, full curve] | Potency [4]: inactive | Potency [5]: inactive | Potency [2]: inactive

N[C@@H](COP(=O)(O)O)C(=O)O
Potency [1]: inactive | activity change, negative = inhibition [6]: inconclusive: 3.21% [at 28.5 µM] | Potency [2]: inactive

CCCCN1C[C@H](O)[C@@H](O)[C@H](O)[C@H]1CO
Potency [3]: inconclusive: 0.0944 µM [rising, full curve, poor fit] | Potency [5]: inconclusive: 0.0756 µM [rising, full curve, poor fit] | Potency [2]: inactive

COC(=O)CCCCCCCC(=O)OC
Potency [3]: inactive | activity change, negative = cytotoxicity [7]: inconclusive: -30.8% [cytotoxic] | Potency [2]: inactive

O=C(O)c1ccc(O)cc1
Potency [1]: inactive | Potency [3]: inconclusive: 0.0123 µM [rising, full curve] | Potency [2]: inconclusive: 21.9 µM [activator, partial curve, poor fit]

CC(C)(C)c1cccc(O)c1
Potency [1]: inactive | Potency [4]: inconclusive: 4.9 µM [rising, single point] | Potency [2]: inactive

CC(C)C(=O)c1ccccc1
Potency [3]: inconclusive: 1.1 µM [rising, full curve, poor fit] | activity change, negative = cytotoxicity [8]: inconclusive: 30.4% | Potency [2]: inactive

CN[C@@H]1[C@H](O)[C@H](NC)[C@H]2O[C@@]3(O)C(=O)C[C@@H](C)O[C@H]3O[C@@H]2[C@H]1O
activation [9]: inconclusive: 16.9% | Potency [7]: inactive | Potency [2]: inactive

c1ccc(CCc2ccccc2)cc1
Potency [10]: inactive | Potency [6]: inactive | Potency [2]: inactive

Cc1nc(-c2ccc(Cl)cc2)oc1COC(C)(C)C(=O)O
Potency [4]: inactive | Potency [2]: inconclusive: 12 µM [falling, single point]

O=C1NCCN1CCO
Potency [3]: inactive | Potency [2]: inconclusive: 57 µM [activator, single point]

CC(O)Cn1cnc2c1c(=O)n(C)c(=O)n2C (configuration not stated)
Potency [4]: inactive | activation [2]: inconclusive: 9.5%

CCN1CCOCC1
ratio activity, negative = inhibition [1]: inconclusive: 8.11% | Potency [7]: inactive | Potency [2]: inactive

CCCCCSCCCCC
Potency [1]: inactive | activation [4]: inconclusive: 0.475% | activity change, negative = inhibition [6]: inconclusive: 24.4% | Potency [2]: inactive

C=C1C2CCC(C2)C1(C)C (configuration not stated)
Potency [1]: inactive and inconclusive: 61.7 µM [fluorescent, single point] | Potency [3]: inconclusive: 12.4 µM [rising, full curve] | Potency [8]: inconclusive: 4.36 µM [falling, full curve, poor fit] | Potency [4]: inconclusive: 61.7 µM [rising, partial curve, poor fit] | Potency [7]: inactive | Potency [2]: inconclusive: 61.7 µM [activator]

CCCCOCCOC(=O)c1cccnc1
Potency [1]: inactive | Potency [3]: inconclusive: 0.0106 µM [rising, full curve] | Potency [5]: inactive | Potency [2]: inconclusive: 2.68 µM [falling, single point]

CSSc1ccoc1C
Potency [3]: inconclusive: 34.5 µM [rising, partial curve, poor fit] | Potency [2]: inconclusive: 54.7 µM [partial curve, poor fit]

CC(=O)SC[C@@H](Cc1ccccc1)C(=O)NCC(=O)OCc1ccccc1
Potency [3]: inactive | Potency [2]: inconclusive: 23.9 µM [activator]

Cc1ccc(N(CC2=NCCN2)c2cccc(O)c2)cc1
Potency [1]: inactive | activity change, negative = inhibition [10]: inconclusive: -24.8% | Potency [5]: inactive | Potency [2]: inconclusive: 10.7 µM [rising, full curve, poor fit]

CC1CCC(C(C)(C)S)C(=O)C1 (configuration not stated)
Potency [3]: inconclusive: 4.9 µM [rising, partial curve, poor fit] | Potency [4]: inconclusive: 0.0039 µM [rising, full curve, poor fit] | Potency [2]: inactive

CC12CC3CC(C)(C1)CC(N)(C3)C2
Potency [11]: inactive | activity change, negative = inhibition [6]: inconclusive: -21.1% | activation [2]: inconclusive: 0.628%

FC(F)(F)C(F)(F)C(F)(F)C(F)(F)CCI
Potency [1]: inactive | Potency [8]: inactive | Potency [5]: inconclusive: 2.24 µM [cytotoxic, single point] | Potency [2]: inconclusive: 0.251 µM [rising, partial curve, poor fit]

CCCCCCCCC1CO1 (configuration not stated)
Potency [3]: inactive | Potency [2]: inactive

CCOC(=O)c1ccc(NC(=O)CN2CCCCC2)cc1
Potency [1]: inactive | Potency [3]: inconclusive: 0.0033 µM [cytotoxic, full curve, poor fit] | Potency [6]: inactive | Potency [2]: inconclusive: 5.35 µM [rising, full curve, poor fit]
